Laboratory results from the CheMixHub viscosity set.
Values joined by “and” are separate entries in the source; they are usually repeats but may differ in a detail not shown here. Equal values may be shown once. This continues a long series; more values of the same kind are listed elsewhere.

Legend:
[1] = xn = mol fraction of the nth substance listed

CC#N
viscosity [mPa·s]
Conditions	293.15 K	298.15 K	303.15 K	308.15 K	313.15 K	318.15 K	323.15 K
101 kPa	–	0.345	0.3322	0.3124	–	–	–
101.3 kPa	0.35	0.333	–	0.292	0.279	0.245	0.223

CCCCCC
viscosity
Conditions	298.1 K	298.15 K	303.15 K	308.15 K	313 K	313.15 K	318.15 K	323 K	323.15 K
101 kPa	0.316 mPa·s and 0.316 mPa·s	0.2958 mPa·s and 0.308 mPa·s and 0.299 mPa·s	0.294 mPa·s and 0.285 mPa·s and 0.3177 mPa·s	0.281 mPa·s and 0.273 mPa·s	–	0.26 mPa·s	0.249 mPa·s	–	0.238 mPa·s
101.33 kPa	–	–	–	–	0.2649 mPa·s	–	–	0.2418 mPa·s	–

CO
Conditions	viscosity
293.15 K, 101.3 kPa	0.5811 mPa·s and 0.587 mPa·s
293.15 K, 101.33 kPa	0.587 mPa·s and 0.5 mPa·s and 0.586 mPa·s
298 K, 100 kPa	0.534 mPa·s
298.15 K, 101 kPa	0.5702 mPa·s and 0.538 mPa·s and 0.5379 mPa·s
298.15 K, 101.3 kPa	0.542 mPa·s and 0.5422 mPa·s and 0.554 mPa·s
303 K, 101 kPa	0.501 mPa·s
303.15 K, 100 kPa	0.505 mPa·s
303.15 K, 101.3 kPa	0.5028 mPa·s and 0.511 mPa·s and 0.5 mPa·s
303.2 K, 101.33 kPa	0.497 mPa·s
308.15 K, 101.3 kPa	0.474 mPa·s and 0.4694 mPa·s and 0.46 mPa·s
308.15 K, 101.31 kPa	0.469 mPa·s
311 K, 101.3 kPa	0.4603 mPa·s
318 K, 101.3 kPa	0.4345 mPa·s
318 K, 101.33 kPa	0.4345 mPa·s
318.15 K, 101 kPa	0.38 mPa·s and 0.4545 mPa·s and 0.4256 mPa·s
318.15 K, 101.3 kPa	0.41 mPa·s
318.15 K, 101.31 kPa	0.411 mPa·s
318.15 K, 101.33 kPa	0.453 mPa·s
319 K, 101.3 kPa	0.4116 mPa·s
323.1 K, 101.33 kPa	0.3927 mPa·s
323.15 K, 101.3 kPa	0.393 mPa·s and 0.4 mPa·s
323.15 K, 101.33 kPa	0.43 mPa·s and 0.399 mPa·s and 0.416 mPa·s

CC#N + CC(C)O
[1], 313.15 K, 101.3 kPa
Conditions	viscosity [mPa·s]
x1 = 0.3855	0.5
x1 = 0.4939	0.427
x1 = 0.5942	0.389
x1 = 0.6871	0.348
x1 = 0.7736	0.317
x1 = 0.8541	0.296
x1 = 0.9295	0.294

CC#N + CCCCO
viscosity [mPa·s], [1], 101.3 kPa
Conditions	x1 = 0.1671	x1 = 0.311	x1 = 0.4362	x1 = 0.5462	x1 = 0.6436	x1 = 0.7303	x1 = 0.8082	x1 = 0.8784	x1 = 0.942
308.15 K	–	–	–	–	–	–	–	0.347	0.314
313.15 K	1.071	0.777	0.598	0.487	0.423	0.384	0.346	0.332	0.301

CC#N + CCCO
[1], 313.15 K, 101.3 kPa
Conditions	viscosity [mPa·s]
x1 = 0.3856	0.587
x1 = 0.4939	0.496
x1 = 0.5945	0.433
x1 = 0.6887	0.39
x1 = 0.7735	0.362
x1 = 0.8539	0.341
x1 = 0.9294	0.32

CC#N + CO
viscosity [mPa·s], [1]
Conditions	298.15 K	303.15 K	308.15 K	313.15 K	318.15 K
101.3 kPa, x1 = 0.0798	0.504	0.47	0.44	0.416	–
101.3 kPa, x1 = 0.1633	0.462	0.432	0.404	0.384	–
101.3 kPa, x1 = 0.2507	0.424	0.398	0.373	0.354	–
101.3 kPa, x1 = 0.3423	0.394	0.37	0.348	0.33	–
101.3 kPa, x1 = 0.4384	0.373	0.351	0.33	0.314	–
101.3 kPa, x1 = 0.5393	0.359	0.338	0.318	0.304	–
101.3 kPa, x1 = 0.6455	0.349	0.329	0.312	0.297	–
101.3 kPa, x1 = 0.7574	0.344	0.328	0.308	0.293	–
101.3 kPa, x1 = 0.8754	0.343	0.326	0.307	0.292	–
101.33 kPa, x1 = 0.5496	–	–	–	–	0.294
101.33 kPa, x1 = 0.5999	–	–	–	–	0.289
101.33 kPa, x1 = 0.6494	–	–	–	–	0.285
101.33 kPa, x1 = 0.6997	–	–	–	–	0.282
101.33 kPa, x1 = 0.745	–	–	–	–	0.28
101.33 kPa, x1 = 0.7995	–	–	–	–	0.28
101.33 kPa, x1 = 0.8496	–	–	–	–	0.281
101.33 kPa, x1 = 0.8998	–	–	–	–	0.281
101.33 kPa, x1 = 0.95	–	–	–	–	0.284

CC#N + O
[1], 323.15 K, 101 kPa
Conditions	viscosity [mPa·s]
x1 = 0.065	0.5847
x1 = 0.084	0.5863
x1 = 0.1498	0.5689
x1 = 0.2534	0.5199
x1 = 0.3831	0.4458
x1 = 0.5071	0.3857
x1 = 0.6075	0.355
x1 = 0.7039	0.3239
x1 = 0.8042	0.3012
x1 = 0.894	0.287
